Reference: the antibiotic and cytotoxicity screens of Wong et al. (2023)
This is one part of the list.

What was measured:
HSkMC = human skeletal muscle cells; assay: cytotoxicity call (relative viability < 0.9); conditions: 10 µM
HepG2 = assay: cytotoxicity call (relative viability < 0.9); conditions: 10 µM
S. aureus RN4220 = assay: growth inhibition call (relative growth <= 0.2); conditions: 50 µM

C[C@H]1CN([C@@H](C)CO)C(=O)c2cccc(NC(=O)Nc3ccc(C(F)(F)F)cc3)c2O[C@H]1CN(C)Cc1ccc2c(c1)OCO2
inactive: cytotoxicity call (HSkMC) | cytotoxicity call (HepG2) | growth inhibition call (S. aureus RN4220)

C[C@@H]1CN([C@H](C)CO)C(=O)Cc2cc(NC(=O)CCC(F)(F)F)ccc2O[C@@H]1CN(C)S(=O)(=O)c1cn(C)cn1
inactive: cytotoxicity call (HSkMC) | cytotoxicity call (HepG2) | growth inhibition call (S. aureus RN4220)

C[C@@H]1CCCCO[C@@H](CN(C)S(=O)(=O)c2ccc(F)cc2)[C@@H](C)CN([C@H](C)CO)C(=O)c2cc(NS(=O)(=O)c3ccc(Cl)cc3)ccc2O1
inactive: cytotoxicity call (HSkMC) | cytotoxicity call (HepG2) | growth inhibition call (S. aureus RN4220)

C[C@@H]1CN([C@H](C)CO)C(=O)Cc2cc(NC(=O)Nc3ccc(C(F)(F)F)cc3)ccc2O[C@@H]1CN(C)C(=O)Nc1cccc2ccccc12
inactive: cytotoxicity call (HSkMC) | cytotoxicity call (HepG2) | growth inhibition call (S. aureus RN4220)

C[C@@H]1CN([C@@H](C)CO)C(=O)c2cc(NC(=O)Nc3ccc4c(c3)OCO4)ccc2O[C@@H](C)CCCCO[C@@H]1CN(C)C(=O)Cc1ccccc1
inactive: cytotoxicity call (HSkMC) | cytotoxicity call (HepG2) | growth inhibition call (S. aureus RN4220)

C[C@@H]1CCCCO[C@@H](CN(C)S(=O)(=O)c2ccc(F)cc2)[C@@H](C)CN([C@H](C)CO)C(=O)c2cc(NC(=O)CCC(F)(F)F)ccc2O1
inactive: cytotoxicity call (HSkMC) | cytotoxicity call (HepG2) | growth inhibition call (S. aureus RN4220)
